Assay results as given in the supplement of paper PMC3334620.
Over roughly 33,000 sequences, “E-score (-0.5 to 0.5)” has its median near -0.017; the highest 2% begin near 0.3. The list shows a part of the results.

molecular target: T1, Sut1 (UniProt P53032); assay: PBM E-score (8-mer binding enrichment) (E-score (-0.5 to 0.5)); higher = stronger / more preferred TF binding; most listed sequences are background and not binding sites; details: protein concentration: 200 nM; construct: GST-full length
T1 sequence: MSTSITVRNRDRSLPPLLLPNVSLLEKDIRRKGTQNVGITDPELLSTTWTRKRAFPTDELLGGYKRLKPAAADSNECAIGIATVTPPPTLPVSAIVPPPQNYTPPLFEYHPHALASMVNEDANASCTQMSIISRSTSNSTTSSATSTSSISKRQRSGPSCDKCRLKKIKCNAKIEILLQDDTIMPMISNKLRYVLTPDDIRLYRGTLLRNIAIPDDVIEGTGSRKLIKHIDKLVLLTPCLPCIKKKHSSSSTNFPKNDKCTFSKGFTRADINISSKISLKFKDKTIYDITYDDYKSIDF
Summary of the method: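 Detection of bound protein used fluorescent anti-GST, with scans normalised by masliner. The proteins were GST-tagged yeast transcription factors applied at about 100-200 nM to universal all-10-mer Agilent arrays made double-stranded by primer extension. Each ungapped eight-base word, pooled with its reverse complement, was scored with an E-score from the Universal PBM Analysis Suite.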

Sequence	PBM E-score
ACTCGTAG	-0.0283
AGACCGCG	0.0201
ACAATTAC	0.0602
TCTAAGAA	0.205
ATACTTGA	0.0447
AGAGATAG	0.051
GCCGGGCA	-0.174
ACTGGTTG	0.173
ATCAACGG	0.0786
CAGATACC	-0.149
AGCCGATC	-0.00257
CCTATCAG	-0.0862
GAAAATGC	0.174
AGTCAGAC	-0.0551
AGAGCCTG	-0.216
GCAATGCA	-0.125
CCACCTGG	-0.324
ATTTGTGC	0.00055
CGTGGTAA	-0.115
ATGTTTCG	0.117
TAAGGAGA	0.131
ACCGCTAT	0.00679

Sequence	PBM E-score
CCCTTGAA	-0.103
ATCCACCG	0.105
CCTCTTTC	-0.118
GCGTGAGC	-0.0579
CAGTTTGG	-0.198
GTCCACCA	-0.0839
CGATATGC	0.0222
GGTTCTAA	0.156
CATTACAC	0.0751
CTCTAACA	-0.0483
CTGAAGGA	-0.15
CATTCTGG	-0.0878
AAGTGGCG	0.113
AGTAGTCC	0.296
ACCACGAT	-0.0444
GCTCGTGA	-0.0887
AATTCTTC	0.246
CTCTAGTA	0.0068
ATGTCGAA	0.156
ACCCACCA	-0.106
CATCCGGA	0.292
TACACTCA	0.0601

Sequence	PBM E-score
GGGGCGGA	0.0435
AATGAATG	0.223
CTTAGAAC	0.195
CATTAGAG	-0.0818
CCTCGGTC	-0.169
CTAAAACA	0.151
AGACTCAA	-0.0327
TGTTTTAA	0.253
CGAATGGA	-0.0926
ACGTTTAC	-0.115
ATTCCCGA	0.0496
AATTAAAA	0.2
CATACACA	0.101
GGGCACAC	-0.305
CACAGGCC	-0.198
CATTTCGA	0.232
GAGCGGGA	0.00658
TCATTGAA	0.151
CTGGAATC	-0.0428
AAATTATA	0.351
CATCTGGC	-0.181
AAGCCAAA	-0.0102

Sequence	PBM E-score
ACGTTGAG	0.00881
AACTATGC	0.189
CTTTAACC	-0.064
CCGGAAGG	0.169
TAGAATAA	0.207
ATAAACTG	0.047
CATAGCCC	-0.196
CTTGGTGA	0.0672
CCTGAGTA	0.0256
AATTAAGC	0.101
CTCAGTAA	-0.1
CTGGCCGC	-0.352
GAATAAGA	0.132
AGCGATGG	-0.183
AAATGCTG	-0.094
GAGACTAC	-0.0905
AAGACTGA	-0.0309
CCGAAAAC	0.164
GTACTAAC	0.0256
CATCAAGG	-0.223
GTCGCTGA	-0.159
GACCACAA	-0.0924

Sequence	PBM E-score
AATGGTAG	0.261
CCAATTAC	0.142
ACATACAG	0.148
CTCCGTGA	0.407
ACCTACAG	0.0362
ATGCCCCC	-0.387
AACCCCCC	-0.455
CTAACTGC	-0.0429
CGCAGAGC	-0.103
GCATCTTA	0.166
CATCGTGC	-0.192
ATCCCGCA	-0.134
AACCGTCG	-0.0536
CCTATGCG	-0.0272
GTCCTTGA	-0.0739
AAAAGCGA	0.191
GCTTAGGA	0.0639
ATTATAAG	0.193
GAGGGCAC	-0.211
CCATTACA	0.184
CGGAGCCA	0.294
